# In the supplement of paper PMC8728848:
# The list shows a part of the results.
# B1: PX9896A-bth-573-26-573 (Bacteroides thetaiotaomicron) (protein)
# chain: ETNNLKTKEDMYKYFGTSKSMLTHVYSYMPQGYQLFATSGGIFTEDRYSMRDCASDDGEFGAYADNIQNTNNGNWSPIKTYDDSWTLYRGIRAANSFIAEIAQVDFTRYEHDGQYTNWMKQLKYFPYEARVLRAHYFFELARRYGDIAMPLEVLTEEEANTIGKTPFSEVISFIVSECDDAANNLPDSYVNEPGAEIGRVTKGFAMAVKSKALLYAASKLHNPSMDTELWKKSAKAAIDIINTGLYSLDPQESANNLDSKEVVLMRINGDDSDFEMFNLPLRMTAGTRTSSLIPYSNYPSQNLVDAFETVNGYKVTLENTGWVCEDPAFDPQSPYENRDKRFYRAILANGMSFKDYTIETFKGGADDGIVSQGGSPTGYFLRKYIQEATSFEPGKEAVSKHHWVIYRYAETLLTYAESMVNAFNDVNYTDETYKYSALWAINEVRKNADMPLIPSMGKDEFMERLYNEWRVEFAFEDHRFWDVRRWKIADTTQRELYGVKIEKQADGTFNFYKNLYETRNWRDCMYLYPIPQSELYKNTNLNPQNTGW
# Tests used:
# Assay in all cases: glycan array binding signal (z-score within array); higher = stronger binding
# Conditions in all cases: glycan notation: IUPAC condensed, linker removed
# Neu5Ac(a2-8)Neu5Ac = target: Neu5Ac(a2-8)Neu5Ac
# Method in brief: (§1)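 The binding signal is a Z-score computed within each array and averaged over linkers. Arrays of the same protein sequence at different concentrations or buffers were also averaged together. Data originate from 3228 arrays in the Consortium for Functional Glycomics database, kept only where the protein sequence was available.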
# [1] = target: Neu5Ac(a2-8)Neu5Ac(a2-3)Gal(b1-3)GalNAc(b1-4)[Neu5Ac(a2-3)]Gal(b1-4)Glc
# Method in brief: as §1
# [2] = target: Neu5Ac(a2-8)Neu5Ac(a2-3)Gal(b1-3)GalNAc(b1-4)[Neu5Ac(a2-8)Neu5Ac(a2-3)]Gal(b1-4)Glc
# Method in brief: as §1
# [3] = target: Neu5Ac(a2-8)Neu5Ac(a2-3)Gal(b1-4)Glc
# Method in brief: as §1
# [4] = target: Neu5Ac(a2-8)Neu5Ac(a2-3)Gal(b1-4)GlcNAc
# Method in brief: as §1
# [5] = target: Neu5Ac(a2-8)Neu5Ac(a2-3)[Gal(b1-3)GalNAc(b1-4)]Gal(b1-4)Glc
# Method in brief: as §1
# [6] = target: Neu5Ac(a2-8)Neu5Ac(a2-3)[GalNAc(b1-4)]Gal(b1-4)Glc
# Method in brief: as §1
# [7] = target: Neu5Ac(a2-8)Neu5Ac(a2-8)Neu5Ac
# Method in brief: as §1
# [8] = target: Neu5Ac(a2-8)Neu5Ac(a2-8)Neu5Ac(a2-3)Gal(b1-4)Glc
# Method in brief: as §1
# [9] = target: Neu5Ac(a2-8)Neu5Ac(a2-8)Neu5Ac(a2-3)[Gal(b1-3)GalNAc(b1-4)]Gal(b1-4)Glc
# Method in brief: as §1
# [10] = target: Neu5Ac(a2-8)Neu5Ac(a2-8)Neu5Ac(a2-3)[GalNAc(b1-4)]Gal(b1-4)Glc
# Method in brief: as §1
# [11] = target: Neu5Ac(a2-8)Neu5Ac(a2-8)Neu5Ac(a2-8)Neu5Ac(a2-3)[GalNAc(b1-4)]Gal(b1-4)Glc
# Method in brief: as §1
# [12] = target: Neu5Ac(a2-8)Neu5Gc(a2-3)Gal(b1-4)GlcNAc
# Method in brief: as §1
# [13] = target: Neu5Ac(b2-6)Gal(b1-4)GlcNAc
# Method in brief: as §1
# Neu5Ac(b2-6)GalNAc = target: Neu5Ac(b2-6)GalNAc
# Method in brief: as §1
# [14] = target: Neu5Ac9Ac(a2-3)Gal(b1-3)GlcNAc
# Method in brief: as §1
# [15] = target: Neu5Ac9Ac(a2-3)Gal(b1-4)GlcNAc
# Method in brief: as §1
# [16] = target: Neu5Ac9Ac(a2-6)Gal(b1-4)GlcNAc
# Method in brief: as §1
# [17] = target: Neu5Gc(a2-3)Gal(b1-3)GlcNAc
# Method in brief: as §1
# [18] = target: Neu5Gc(a2-3)Gal(b1-3)[Fuc(a1-4)]GlcNAc
# Method in brief: as §1
# Neu5Gc(a2-3)Gal(b1-4)Glc = target: Neu5Gc(a2-3)Gal(b1-4)Glc
# Method in brief: as §1
# [19] = target: Neu5Gc(a2-3)Gal(b1-4)GlcNAc
# Method in brief: as §1
# [20] = target: Neu5Gc(a2-3)Gal(b1-4)GlcNAc(b1-3)Gal(b1-4)GlcNAc(b1-2)Man(a1-3)[Neu5Gc(a2-3)Gal(b1-4)GlcNAc(b1-3)Gal(b1-4)GlcNAc(b1-2)Man(a1-6)]Man(b1-4)GlcNAc(b1-4)GlcNAc
# Method in brief: as §1
# [21] = target: Neu5Gc(a2-3)Gal(b1-4)[Fuc(a1-3)]GlcNAc
# Method in brief: as §1
# [22] = target: Neu5Gc(a2-6)Gal(b1-4)GlcNAc
# Method in brief: as §1
# Neu5Gc(a2-6)GalNAc = target: Neu5Gc(a2-6)GalNAc
# Method in brief: as §1
# [23] = target: Neu5Gc(a2-8)Neu5Ac(a2-3)Gal(b1-4)GlcNAc
# Method in brief: as §1
# [24] = target: Neu5Gc(a2-8)Neu5Gc(a2-3)Gal(b1-4)GlcNAc
# Method in brief: as §1
# [25] = target: Neu5Gc(a2-8)Neu5Gc(a2-3)Gal(b1-4)GlcNAc(b1-3)Gal(b1-4)GlcNAc
# Method in brief: as §1
# [26] = target: Neu5Gc(a2-8)Neu5Gc(a2-6)Gal(b1-4)GlcNAc
# Method in brief: as §1
# [27] = target: Neu5Gc(b2-6)Gal(b1-4)GlcNAc
# Method in brief: as §1
binder,measurement,setting,value
B1,glycan array binding signal (z-score),Neu5Ac(a2-8)Neu5Ac,0.403
same,glycan array binding signal (z-score),[1],1.03
same,glycan array binding signal (z-score),[2],0.31
same,glycan array binding signal (z-score),[3],-0.699
same,glycan array binding signal (z-score),[4],0.123
same,glycan array binding signal (z-score),[5],-0.791
same,glycan array binding signal (z-score),[6],-0.414
same,glycan array binding signal (z-score),[7],-0.168
same,glycan array binding signal (z-score),[8],-0.639
same,glycan array binding signal (z-score),[9],-0.398
same,glycan array binding signal (z-score),[10],-0.852
same,glycan array binding signal (z-score),[11],0.475
same,glycan array binding signal (z-score),[12],13.3
same,glycan array binding signal (z-score),[13],0.023
same,glycan array binding signal (z-score),Neu5Ac(b2-6)GalNAc,-0.726
same,glycan array binding signal (z-score),[14],-0.919
same,glycan array binding signal (z-score),[15],0.648
same,glycan array binding signal (z-score),[16],0.618
same,glycan array binding signal (z-score),[17],0.301
same,glycan array binding signal (z-score),[18],-0.896
same,glycan array binding signal (z-score),Neu5Gc(a2-3)Gal(b1-4)Glc,-0.11
same,glycan array binding signal (z-score),[19],-0.12
same,glycan array binding signal (z-score),[20],0.811
same,glycan array binding signal (z-score),[21],-0.356
same,glycan array binding signal (z-score),[22],-0.408
same,glycan array binding signal (z-score),Neu5Gc(a2-6)GalNAc,-0.244
same,glycan array binding signal (z-score),[23],0.178
same,glycan array binding signal (z-score),[24],-0.807
same,glycan array binding signal (z-score),[25],-0.689
same,glycan array binding signal (z-score),[26],-0.009
same,glycan array binding signal (z-score),[27],0.432
